Source: PMC4336329 (PLoS ONE, 2015)
In all, about 310,000 compounds went through this assay and about 14,000 (4.5%) showed an effect of 50% or more. The effect is printed as a negative number. Some of the results follow.

molecular target: human ether-à-go-go-related gene (hERG) potassium channel (human, UniProt Q12809); experiment: primary screen, population patch clamp on CHO cells stably expressing hERG
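Further: peak tail current of the secondary pulse compared with the same well before compound.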

Sequence of human ether-à-go-go-related gene (hERG) potassium channel (Q12809 whole entry, looked up): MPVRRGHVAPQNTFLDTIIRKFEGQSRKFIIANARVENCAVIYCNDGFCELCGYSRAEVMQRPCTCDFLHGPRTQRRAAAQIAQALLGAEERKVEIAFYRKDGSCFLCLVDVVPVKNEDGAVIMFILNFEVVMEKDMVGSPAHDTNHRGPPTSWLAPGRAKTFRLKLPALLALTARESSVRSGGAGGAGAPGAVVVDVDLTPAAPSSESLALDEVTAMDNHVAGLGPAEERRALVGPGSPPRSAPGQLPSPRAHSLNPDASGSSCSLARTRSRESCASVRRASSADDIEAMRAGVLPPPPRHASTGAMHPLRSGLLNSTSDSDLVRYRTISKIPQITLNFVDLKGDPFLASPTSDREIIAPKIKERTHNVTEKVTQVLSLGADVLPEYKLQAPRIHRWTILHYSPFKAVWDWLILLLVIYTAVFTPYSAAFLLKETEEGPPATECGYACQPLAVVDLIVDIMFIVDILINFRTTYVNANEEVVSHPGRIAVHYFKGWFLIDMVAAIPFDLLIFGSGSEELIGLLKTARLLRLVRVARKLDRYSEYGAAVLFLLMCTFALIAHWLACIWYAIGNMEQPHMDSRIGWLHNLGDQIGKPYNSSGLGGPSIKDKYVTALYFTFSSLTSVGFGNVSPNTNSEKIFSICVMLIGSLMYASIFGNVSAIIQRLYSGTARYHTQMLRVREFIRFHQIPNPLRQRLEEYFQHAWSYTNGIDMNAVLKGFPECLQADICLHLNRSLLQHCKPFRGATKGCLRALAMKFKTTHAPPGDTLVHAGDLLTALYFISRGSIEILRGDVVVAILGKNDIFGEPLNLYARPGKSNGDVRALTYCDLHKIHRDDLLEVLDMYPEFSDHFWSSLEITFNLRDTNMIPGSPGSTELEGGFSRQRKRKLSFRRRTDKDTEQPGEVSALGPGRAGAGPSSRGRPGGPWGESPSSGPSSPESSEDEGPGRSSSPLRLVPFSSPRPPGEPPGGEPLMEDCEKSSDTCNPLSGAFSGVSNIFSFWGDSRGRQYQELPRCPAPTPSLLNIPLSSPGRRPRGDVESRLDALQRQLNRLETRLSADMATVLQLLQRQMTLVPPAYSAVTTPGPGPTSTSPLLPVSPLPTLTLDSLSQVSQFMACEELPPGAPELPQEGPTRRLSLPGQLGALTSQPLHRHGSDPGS

Compound	hERG current change (%, negative = inhibition) at 10uM
Brc1ccc(CN2C3=NCCCN3c3ccccc32)cc1.Cl	-74.2%
C=CCNC(=O)c1ccc([N+](=O)[O-])c(Cl)c1	-2.24%
Cc1ccc(C)c(Cn2cnc3c(oc4ccccc43)c2=O)c1	11.2%
O=C(COc1ccc2ccccc2c1)Nc1ccccc1C(=O)O	26.6%
COc1ccc(C2N(c3ccccc3)C(=O)C2(F)F)cc1OC (stereo not shown)	-5.59%
Clc1ccccc1C(c1ccccc1)(c1ccccc1)n1ccnc1	-10.4%
COCCNc1oc(-c2ccccc2Cl)nc1C#N	-13.3%
O=C(CN1C(=O)c2ccccc2S1(=O)=O)NC1CCCCCC1	-1.49%
Cc1ccc(-c2nn(Cc3ccccc3)cc2C(=O)N2CCN(c3ccccn3)CC2)cc1	-28.7%
Cc1ccc(CCNC(=O)C2CCCN(c3ncnc4c3nc3n4CCCCC3)C2)cc1 (stereo not shown)	-28.7%
O=C(OCc1nnc(-c2ccccc2)o1)c1cc(Cl)ccc1[N+](=O)[O-]	13%
CNC(=O)c1[nH]cnc1C(=O)Nc1ccccn1	12.9%
CCC(=O)Nc1c2c(nn1-c1ccc(C)cc1)CS(=O)(=O)C2	4.91%
COc1cccc(OC)c1C(=O)NNC(=O)c1ccccc1-n1cccc1	31%
C=CCSc1nc2c(c(=O)[nH]c(=O)n2C)n1CC	-1.39%
COc1ccc(S(=O)(=O)N2CCN(C/C=C/c3ccccc3)CC2)cc1NC(C)=O	-77.9%
Cc1cc(C)n(CC(=O)N/N=C/c2cccc([N+](=O)[O-])c2)n1	-13.6%
COc1cccc(NC(=O)CN(C)C(=O)CCNC(=O)c2ccccc2Cl)c1	5%
Cc1nc(C)n(CC(O)COc2ccc(C(=O)c3ccccc3)cc2)n1 (stereo not shown)	-6.4%
COc1ccc(C2C(=O)N(C3CCCCC3)CC(=O)N2CC2COc3ccccc3O2)cc1 (stereo not shown)	-21.1%
CN1C(=O)C(=Cc2ccc(N3CCOCC3)c([N+](=O)[O-])c2)C(=O)N(C)C1=O	11.4%
COc1ccc(CCNC(=O)Cn2cnc3scc(-c4ccccc4)c3c2=O)cc1OC	8.19%
O=C(O)Cc1sc(-c2ccc(C(=O)O)cc2)nc1-c1ccccc1	19.1%

Compound	hERG current change (%, negative = inhibition) at 10uM
CS(=O)(=O)N(CC(=O)NCc1ccccn1)Cc1ccc(Cl)cc1	-4.12%
CC(C)Cc1cc(C(=O)NCc2cccnc2)no1	2.93%
Cc1ccc(-n2c(CSc3nc(C)cc(C)n3)nnc2SCC(=O)NCc2ccco2)cc1	-38.7%
O=C(O)CCCCc1nc2ccccc2s1	-4.44%
Nc1cc(N)nc(SCC(=O)NNC(=O)Cc2ccccc2)n1	16.2%
CCCCCOc1ccc(NC(=O)C(=O)NCC2CCCN2CC)cc1 (stereo not shown)	-77.9%
O=S(=O)(c1ccc(Cl)cc1)N1CCCc2ccccc21	0.861%
CCOC(=O)CN1CC23C=CC(O2)C(C(=O)Nc2ccc(OCC)cc2)C3C1=O (stereo not shown)	-1.97%
CS(=O)(=O)c1ccc(Cl)c(NC(=O)C2CC(=O)N(c3ccc4c(c3)OCCO4)C2)c1 (stereo not shown)	11.5%
O=C1C=C(NCc2ccc(Cl)cc2Cl)C2(CCCCC2)O1	2.49%
CC(C)C(=O)OCC(=O)NCc1ccccc1Cl	0.409%
O=C(O)c1cc(Cl)c(Cl)cc1C(=O)N1CCCC1	6.47%
CC1CCCCN1CCNC(=O)c1ccc2c(=O)n(CCc3ccccc3)c(=O)[nH]c2c1 (stereo not shown)	-38.7%
CCCNC(=O)Nc1ccsc1C(=O)OC	3.8%
CCCCC(CC)CN1C(=O)/C(=C/c2ccncc2)SC1=S (stereo not shown)	3.65%
CC(=O)N1CCc2ccc(S(=O)(=O)N3CCN(C)CC3)cc21	14.8%
COc1ccc(NS(=O)(=O)c2ccc(NC(=O)c3ccccc3)cc2)nn1	-0.597%
CCOC(=O)c1c(C)oc2ccc(NS(=O)(=O)c3ccc4c5c(cccc35)C(=O)N4)cc12	-10.9%
CCCNC(=O)CSC1=N/C(=C/c2ccc(F)cc2)C(=O)N1CC	-9.88%
CCN(CC(=O)Nc1c(F)cccc1F)C(=O)c1n[nH]c2ccccc12	10.4%
O=C(Oc1ccc2ccc(=O)oc2c1)c1cccs1	13.2%
COc1cc2c(cc1O)C(SC)=NC(C)(C)C2	6.7%
COc1cc(C(=O)NNC(=O)c2cc(S(=O)(=O)N(C)C)ccc2N2CCCC2)cc(OC)c1OC	15.1%

Compound	hERG current change (%, negative = inhibition) at 10uM
COc1ccc2cc(CCNC(=O)C(C)C)c(=O)[nH]c2c1	13.4%
CC1CN(S(=O)(=O)c2cccc(C(=O)OCc3cc(=O)oc4cc(O)ccc34)c2)CC(C)O1 (stereo not shown)	-26.3%
O=C(CN1CCCCC1)N1N=C(c2cccs2)CC1c1cccs1 (stereo not shown)	-58.7%
COc1cc(C(=O)NC2CCN(Cc3ccccc3)CC2)cc(Cl)c1OC(C)C	-61.2%
CCOc1ccc(S(=O)(=O)Nc2ccc(C(=O)N3CC(C)OC(C)C3)cc2)cc1 (stereo not shown)	0.557%
CCn1cc(C(=O)NCc2ccccc2)c2ccccc21	20.3%
COC(=O)c1c(C)[nH]c(C(=O)C(C)OC(=O)C2CC2)c1C (stereo not shown)	13.8%
COc1ccc(C(=O)Nc2c(N)nc(SCC(=O)c3ccccc3)[nH]c2=O)cc1	12.4%
CC1=C(C(=O)OC2CCCCC2)C(c2cccs2)n2c(nc3ccccc32)N1 (stereo not shown)	-1.21%
CC(C)[C@H](NC(=O)N1CC(=O)Nc2ccccc21)C(=O)N1CCC[C@H]1C(=O)O	16.8%
CCOc1ccc2oc(C(=O)NNC(=O)c3ccccc3O)c(C)c2c1	9.29%
CN=C(SCC(=O)c1cccc(Cl)c1)c1c(O)n(C)c(=O)n(C)c1=O	-1.91%
C=CCOC(=O)C1=C(C)N=C2SCCC(=O)N2C1c1cccs1 (stereo not shown)	2.46%
COc1ccc(-c2cc3nc4n(c(=O)c3s2)CCC4)cc1	0.892%
O=C1N2CCSC2=NC1(Nc1nccs1)C(F)(F)F (stereo not shown)	5.22%
Cn1c(Cc2ccccc2)nnc1SCC(=O)N1CCN(c2ccccc2)CC1	-14.5%
CCc1cc(=O)oc2cc(C)c3c(C)coc3c12	16.3%
COC(CNC(=O)c1ccc2c(=O)n(Cc3ccc4c(c3)OCO4)c(=S)[nH]c2c1)OC	11.6%
Cc1ccc(NC(=O)CN(C)C(=O)CCSc2ccc(F)cc2)cc1	-9.17%
O=C(CCN1C(=O)C2CCCCC2C1=O)N1CCN(S(=O)(=O)c2ccccc2)CC1 (stereo not shown)	-1.24%
Clc1ccc2c(N3CCCC3)ccnc2c1	-65.2%
COc1ccc(C2CC(Cn3cc(C#N)c(=O)n(C)c3=O)ON2C)cc1 (stereo not shown)	8.43%
CCOc1ccc(NC(=O)CN(c2cc(C)cc(C)c2)S(=O)(=O)c2c(C)noc2C)cc1	0.745%

Compound	hERG current change (%, negative = inhibition) at 10uM
Cc1ccc(C2N3CCCN23)cc1 (stereo not shown)	11.9%
Cc1ccc(CN2CCSCC2)cc1	17.4%
NS(=O)(=O)c1ccc(CCn2c(=S)[nH]c3ccc(F)cc3c2=O)cc1	26.3%
ONC=Nc1cccc2nonc12	10.8%
Cn1c(O)c(N=NC(=O)Cn2ccc(C(F)(F)F)n2)c2ccccc21	14.7%
CCc1cccc(NC(=O)COc2ccccc2)c1	-8.01%
N#CCCn1cc(C(=O)Nc2ccc([N+](=O)[O-])cc2)c(-c2ccccc2)n1	-80.1%
CCOC(=O)N1CCN(C(=O)CCc2ccc(S(=O)(=O)NCC(C)C)cc2)CC1	-19.8%
COC(=O)C1=C(C)OC(N)=C(C#N)C1c1ccccc1 (stereo not shown)	14.9%
FC(F)(F)c1cc(Oc2ccccc2)ncc1-c1nnc(-c2ccccc2Cl)o1	0.303%
Cc1cc(C(F)(F)F)nc(SCCN2CCOCC2)c1C#N	3.64%
O=S(=O)(NCC(c1cccnc1)N1CCN(c2ccccc2)CC1)c1cc(F)ccc1F (stereo not shown)	-62.8%
Cn1c(SCC(=O)c2c(N)n(C)c(=O)n(C)c2=O)nnc1-c1ccccc1	-10.1%
O=C(Nc1ccccc1)N1CCSCC1	-1.89%
O=C(c1ccc2c3n(nc2c1)-c1ccccc1CO3)N1CCOCC1	-8.48%
O=C(CSc1nc2ccccc2[nH]1)N/N=C/C=C\c1ccccc1[N+](=O)[O-]	-9.37%
Cc1nc(C)c(-c2ccn(C(=O)NC(C)C)n2)s1	10.5%
Cc1ccccc1Cc1n[nH]c(=S)n1N	16.6%
COc1ccc(OCC(O)CNC(=O)c2ccc(C)cc2)cc1 (stereo not shown)	3.31%
O=C(NNC(=O)C1CC(c2cccs2)=NO1)Nc1ccccc1 (stereo not shown)	4.22%
CCOc1ccccc1N1CCN(C(=O)c2ccc(NS(=O)(=O)c3ccc4[nH]c(=O)[nH]c4c3)cc2)CC1	2.58%
O=C(/C=C/c1ccco1)Nc1cccc(C(=O)Nc2ccccc2C(=O)O)c1	3.39%
